Measured values as given in the supplement of paper PMC3334620.
Whole data set: some 33,000 sequences, median “E-score (-0.5 to 0.5)” near -0.012, cut for the highest 2% near 0.29. Some of the results follow.

Target: T1, Ybr033w (UniProt P38073)
T1 sequence: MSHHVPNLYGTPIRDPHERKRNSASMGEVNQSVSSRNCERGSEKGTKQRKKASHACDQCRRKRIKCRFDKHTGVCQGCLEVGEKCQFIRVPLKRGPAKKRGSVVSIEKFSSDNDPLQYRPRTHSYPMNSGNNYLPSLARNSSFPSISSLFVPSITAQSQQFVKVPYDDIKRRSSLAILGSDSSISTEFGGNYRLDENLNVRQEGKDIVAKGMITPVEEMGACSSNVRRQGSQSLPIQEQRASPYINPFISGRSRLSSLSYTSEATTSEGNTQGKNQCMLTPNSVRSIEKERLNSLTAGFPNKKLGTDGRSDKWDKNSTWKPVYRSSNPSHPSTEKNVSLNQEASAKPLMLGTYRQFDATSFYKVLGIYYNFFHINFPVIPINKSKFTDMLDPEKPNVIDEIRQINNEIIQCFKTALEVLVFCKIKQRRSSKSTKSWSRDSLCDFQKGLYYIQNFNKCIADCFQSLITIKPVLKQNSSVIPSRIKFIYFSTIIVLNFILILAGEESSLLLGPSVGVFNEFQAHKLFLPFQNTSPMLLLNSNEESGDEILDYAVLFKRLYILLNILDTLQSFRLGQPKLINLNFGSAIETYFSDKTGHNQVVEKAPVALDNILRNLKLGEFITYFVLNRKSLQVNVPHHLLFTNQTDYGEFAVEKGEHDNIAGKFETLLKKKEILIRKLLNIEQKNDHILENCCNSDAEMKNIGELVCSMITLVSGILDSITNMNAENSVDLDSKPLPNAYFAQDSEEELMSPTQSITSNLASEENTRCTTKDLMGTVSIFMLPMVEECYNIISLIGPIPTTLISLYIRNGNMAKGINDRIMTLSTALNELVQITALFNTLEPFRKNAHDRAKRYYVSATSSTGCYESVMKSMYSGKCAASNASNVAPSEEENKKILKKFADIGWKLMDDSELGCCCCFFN
Assay: PBM E-score (8-mer binding enrichment) (E-score (-0.5 to 0.5)); higher = stronger / more preferred TF binding; most listed sequences are background and not binding sites
Settings: protein concentration: 200 nM; construct: GST-full length
Procedure, shortened: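 Each ungapped eight-base word and its reverse complement, pooled, received an E-score from the Universal PBM Analysis Suite. Underlying scans, normalised with masliner, recorded fluorescent anti-GST bound to GST-tagged yeast transcription factors. These were applied at about 100-200 nM to universal all-10-mer Agilent arrays double-stranded by primer extension.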

Row | Sequence | PBM E-score
1 | GCAAACGA | 0.0591
2 | AGGACTAT | -0.149
3 | GAAGCGGA | -0.0122
4 | GAGCAAAC | -0.0275
5 | AACGCCAT | -0.224
6 | CCAACGCG | -0.132
7 | ATGACCAT | -0.0382
8 | AACGACGT | 0.119
9 | CTGCATGA | -0.241
10 | CACGAAGG | -0.0542
11 | GGAACCGA | -0.076
12 | CATTGACA | -0.129
13 | AGTATATG | 0.0561
14 | AGGGCGTG | -0.231
15 | CGCCCGGC | -0.279
16 | CCCTCGTA | -0.14
17 | AAGATTCC | 0.176
18 | GCTGAACC | -0.131
19 | ACACCCGA | -0.0567
20 | ATGAAATC | 0.243
21 | GGAGTACC | -0.2
22 | CGTGTATC | -0.00118
23 | CCAATGAA | -0.194
24 | CCCCCTAC | -0.288
25 | ATATAGTC | 0.25

Row | Sequence | PBM E-score
26 | ACCACTGA | -0.165
27 | AGCTTCAA | 0.0592
28 | TAGTGTCA | 0.126
29 | AGAATCCT | -0.0371
30 | ATTCACCC | 0.045
31 | ATTTTAAC | 0.189
32 | AAGACAGC | -0.0461
33 | TCCCGGAA | 0.161
34 | GGAATTAC | 0.291
35 | CGAGAGAA | 0.0602
36 | CGAGGCAC | -0.109
37 | CCGTAATA | 0.154
38 | CTCGTTTC | 0.0476
39 | TACGTTGA | 0.0485
40 | AATAGGAT | 0.295
41 | CGCTCTCA | -0.223
42 | GTGGGGTA | 0.00795
43 | AGAACTCC | -0.05
44 | GAGGTTGC | -0.239
45 | AACATGAA | 0.0903
46 | TGTTCGAA | 0.0189
47 | ACTCGTTG | -0.031
48 | GAAATCGA | -0.0436
49 | CCCTTCGA | -0.158
50 | ATTACATG | 0.161

Row | Sequence | PBM E-score
51 | ATGACGGG | -0.117
52 | CATGGAAG | 0.204
53 | AAAGTAGC | 0.142
54 | AAGCAATC | 0.0251
55 | ACTCTGTA | 0.105
56 | AAGTTTTA | 0.179
57 | GTTCGAAA | 0.0787
58 | ATAGGTTC | 0.143
59 | AACCCCCT | -0.296
60 | TACAGTAA | 0.174
61 | CTTATGAA | 0.102
62 | CGTTATCA | 0.0121
63 | AAGCCACA | -0.0702
64 | CCCACTCC | -0.238
65 | CATCTCCG | -0.00322
66 | GCACACCA | -0.145
67 | ATTCTTCC | 0.471
68 | CCGCCATA | 0.0114
69 | ATGTCTGC | -0.125
70 | GCACTATA | 0.0785
71 | AACGACCC | -0.309
72 | GTCCATTA | 0.0962
73 | CCCGGAGC | -0.222
74 | TCGCGTCA | -0.11
75 | GGGTGATA | -0.0882

Row | Sequence | PBM E-score
76 | CTCCTAAG | -0.109
77 | CACAGACA | 0.0387
78 | CCGATAAA | 0.0212
79 | ATGCATTG | 0.0596
80 | AGGGGCCG | -0.29
81 | CAGATGGA | 0.22
82 | CGCGATAA | 0.223
83 | TGACAGAA | 0.131
84 | ATGAAAAC | 0.202
85 | AACAGGTC | 0.0597
86 | ACTACACA | 0.214
87 | ACTCCGTG | -0.0559
88 | ACCTTGTC | -0.217
89 | AGAGTTCC | -0.098
90 | AGAGTCCG | -0.109
91 | GATATACA | 0.144
92 | ATTACGCA | 0.225
93 | CTATGCCC | -0.206
94 | AAACTGGG | 0.0083
95 | GACCATCC | -0.14
96 | ATTCCATG | 0.133
97 | AAACCTCT | -0.0634
98 | CGAGGTCC | -0.24
99 | CACGTCGA | -0.0306
100 | AGGTAGGC | -0.147

Row | Sequence | PBM E-score
101 | AGCACTAA | 0.146
102 | CATTGAGG | -0.0918
103 | CCTTGGTA | 0.137
104 | AGTTCTCC | -0.131
105 | ATCCATGG | -0.0256
106 | GCTTGTAA | 0.0713
107 | CTAAATCC | 0.018
108 | CGGGATTC | -0.0497
109 | CTTTGGTC | 0.0811
110 | AACGCTAA | -0.0623
111 | GAAGGGAC | -0.154
112 | ATGTTTCA | 0.171
113 | CCGGGACC | -0.211
114 | AAGACCAT | 0.073
115 | GAGATCAA | 0.118
116 | CTCACAAG | -0.103
117 | CGTATATA | -0.0295
118 | CCCCGAAG | -0.0238
119 | CCTATAGA | -0.0909
120 | AAGCTGAT | 0.202
121 | ACAAGTAC | 0.0779
122 | CACAGCAC | -0.103
123 | AGGACAAG | -0.111
124 | AATTTTCG | 0.102
125 | GGCTACAC | -0.12

Row | Sequence | PBM E-score
126 | GGATCAAA | 0.367
127 | AGGGAGAG | -0.255
128 | GACAGGTA | -0.133
129 | GGATCGCC | -0.123
130 | AAAGACGA | 0.0553
131 | GATGGGAA | -0.0943
132 | CCTGAAGG | -0.182
133 | GCACAAAC | -0.0739
134 | CCCCAACA | -0.0451
135 | AGGTTAAG | -0.00148
136 | CGCCCCGA | -0.206
137 | CTAGCGAA | -0.191
138 | AGATGAAA | 0.0735
139 | CGGCCTAA | 0.00964
140 | GGCGAGCC | -0.212
141 | CGGTAACG | -0.234
142 | CAGACGCA | 0.036
143 | CATCGATC | -0.0186
144 | CGTAAGGA | -0.00651
145 | AGTTCCAG | 0.0573
146 | GTGACGTA | -0.0298
147 | AGAGTTCG | 0.0328
148 | CCTCTCCC | -0.25
149 | ATCGATGA | 0.0647
150 | AGTGCCGC | -0.149

Row | Sequence | PBM E-score
151 | CCAGTCGC | -0.136
152 | ACCTACGA | 0.0606
153 | CACTGATA | 0.0203
154 | CCTCAGAA | -0.228
155 | CAGGCCTA | -0.0342
156 | CCGCGGCA | -0.00902
157 | AGCTTGAG | -0.0261
158 | CAACCATG | -0.0388
159 | GTGGCTCA | -0.102
160 | ATCTCCAG | 0.017
161 | CGTATGAG | 0.00857
162 | ATCTGTGA | 0.141
163 | AAAGCACC | -0.0391
164 | AAAATCTG | 0.235
165 | TAGTAGCA | 0.11
166 | CGCTTCCC | -0.296
167 | GATGGGCA | -0.0503
168 | TAATGCTA | 0.252
169 | ACAGTCCA | -0.00715
170 | CAAGTCAA | 0.11
171 | ACAAGAGG | -0.154
172 | GGTTCCTA | -0.116
